Laboratory results taken from US12583836B2 (Anaxis Pharma Pty Ltd, priority 2020, dated 2026).

What was measured:
RIP1 = molecular target: T1, RIP1 (Homo sapiens, UniProt Q13546); assay: KINOMEscan binding assay, RIP1; conditions: equilibrium dissociation constant, class symbols
T1 construct: purchased DiscoverX (KINOMEscan service); host or cells: E. coli BL21-derived (T7 phage) or HEK293
T1 sequence (Q13546 1-671): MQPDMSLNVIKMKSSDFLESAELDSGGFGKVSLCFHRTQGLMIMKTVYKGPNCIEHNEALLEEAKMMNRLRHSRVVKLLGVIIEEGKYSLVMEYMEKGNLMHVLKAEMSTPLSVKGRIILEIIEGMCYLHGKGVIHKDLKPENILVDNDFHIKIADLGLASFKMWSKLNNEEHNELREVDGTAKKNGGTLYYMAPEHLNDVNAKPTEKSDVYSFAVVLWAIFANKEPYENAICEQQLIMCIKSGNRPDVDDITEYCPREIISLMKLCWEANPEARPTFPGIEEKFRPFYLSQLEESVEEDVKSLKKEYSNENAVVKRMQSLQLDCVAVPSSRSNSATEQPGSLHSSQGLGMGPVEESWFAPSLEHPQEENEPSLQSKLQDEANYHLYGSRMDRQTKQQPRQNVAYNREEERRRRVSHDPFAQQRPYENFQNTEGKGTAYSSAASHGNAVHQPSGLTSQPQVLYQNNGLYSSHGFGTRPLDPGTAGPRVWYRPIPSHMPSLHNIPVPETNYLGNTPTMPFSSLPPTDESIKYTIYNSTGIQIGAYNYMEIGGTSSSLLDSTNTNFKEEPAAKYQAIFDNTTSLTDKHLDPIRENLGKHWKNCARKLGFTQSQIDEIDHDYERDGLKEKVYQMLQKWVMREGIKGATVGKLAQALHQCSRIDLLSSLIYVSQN

U937 cells = assay: Counter screen: cell viability without the TSQ cocktail (CelltiterGlo); set-up: species or system human; conditions: read-out: Off-target effect (IC50 cell-based assay)
Experimental: Counter screen: In parallel, all compounds were tested for their ability to affect cell viability. The same U937 cells were treated with compound in DMSO without the TSQ cocktail. This counter screen enabled evaluation of off-target effects. In this case, cell viability was measured by CelltiterGlo.

MLKL (full length) = molecular target: T2, MLKL (full length) (Homo sapiens, UniProt Q8NB16); assay: KINOMEscan binding assay, MLKL; conditions: equilibrium dissociation constant, class symbols
T2 construct: purchased DiscoverX (KINOMEscan service); host or cells: E. coli BL21-derived (T7 phage) or HEK293
T2 sequence (Q8NB16 1-471): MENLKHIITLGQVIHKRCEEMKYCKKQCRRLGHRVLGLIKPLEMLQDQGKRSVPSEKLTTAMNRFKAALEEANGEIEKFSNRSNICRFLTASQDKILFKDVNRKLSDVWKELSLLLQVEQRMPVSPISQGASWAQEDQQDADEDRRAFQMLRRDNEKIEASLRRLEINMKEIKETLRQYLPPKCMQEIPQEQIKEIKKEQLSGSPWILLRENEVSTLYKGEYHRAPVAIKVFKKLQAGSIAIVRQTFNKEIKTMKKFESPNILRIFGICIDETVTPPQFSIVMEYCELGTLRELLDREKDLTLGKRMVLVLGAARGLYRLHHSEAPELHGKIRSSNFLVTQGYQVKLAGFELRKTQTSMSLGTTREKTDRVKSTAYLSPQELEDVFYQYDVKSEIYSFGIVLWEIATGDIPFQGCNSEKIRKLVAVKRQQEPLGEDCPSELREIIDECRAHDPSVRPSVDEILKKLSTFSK
Excerpt: The Hill Slope was set to −1.

[1] = system: U937 human histiocytic leukemia cell line; assay: Inhibition of TSQ induced necroptosis, 384 well plate format (CellTitre-Glo); conditions: U937 cells, TSQ cocktail (TNF, Smac mimetic, Q-VD-OPh), CelltiterGlo, read-out: Inhibition of TSQ-induced necroptosis (IC50 cell-based assay)
In short: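 Necroptosis was induced in U937 cells (20,000/well) by hTNF-Fc 100 ng/ml, Smac mimetic 500 nM and Q-VD-OPh 10 μM for 48 h at 37 °C. Compounds were run as a 10-point 1:3 series from 36 μM in 0.3% DMSO. Viability was read by CellTiter-Glo luminescence (DMSO = 100%, DMSO+TSQ = 0%), and IC50 was taken from a 4-parameter fit.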

[2] = Homo sapiens, U-937, cell viability by CelltiterGlo

| Kd (RIP1) | Kd (MLKL (full length)) | Structure (SMILES) | IC50 (U937 cells; [2]) | IC50 ([1]; Homo sapiens, U-937) | IC50 (U937 cells; cell viability by CelltiterGlo) | IC50 [1] |
| --- | --- | --- | --- | --- | --- | --- |
| > 30000 nM | < 10 nM | CCS(=O)(=O)Nc1ccc(-c2n[nH]c(Nc3cnc(C)cn3)c2C(N)=O)cc1OCc1ccc(F)cc1 [Compound 22, 3-(4-(ethylsulfonamido)-3-((4-fluorobenzyl)oxy)phenyl)-5-((5-methylpyrazin-2-yl)amino)-1H-pyrazole-4-carboxamide] | > 30000 nM | 10 to 1000 nM | – | – |
| > 30000 nM | < 10 nM | CCS(=O)(=O)Nc1ccc(-c2n[nH]c(Nc3cnccn3)c2C(N)=O)cc1 [Compound 108, 3-(4-(ethylsulfonamido)phenyl)-5-(pyrazin-2-ylamino)-1H-pyrazole-4-carboxamide] | > 30000 nM | 1000 to 30000 nM | – | – |
| > 30000 nM | < 10 nM | CCS(=O)(=O)Nc1ccc(-c2n[nH]c(Nc3ccnc(OC)n3)c2C(N)=O)cc1 [Compound 123, 3-(4-(ethylsulfonamido)phenyl)-5-((2-methoxypyrimidin-4-yl)amino)-1H-pyrazole-4-carboxamide] | > 30000 nM | 1000 to 30000 nM | – | – |
| > 30000 nM | < 10 nM | CCS(=O)(=O)Nc1ccc(-c2n[nH]c(Nc3cncc(C)n3)c2C(N)=O)cc1 [Compound 84, 3-(4-(ethylsulfonamido)phenyl)-5-((6-methylpyrazin-2-yl)amino)-1H-pyrazole carboxamide] | – | – | > 30000 nM | 1000 to 30000 nM |
| > 30000 nM | < 10 nM | C[C@H](Oc1cc(-c2n[nH]c(Nc3cnccn3)c2C(N)=O)ccc1NS(=O)(=O)C(F)F)c1ccc(F)cc1 [Compound 223, 3-[4-(difluoromethanesulfonamido)-3-[(1S)-1-(4-fluorophenyl)ethoxy]phenyl]-5-[(pyrazin-2-yl)amino]-1H-pyrazole-4-carboxamide] | > 30000 nM | < 10 nM | – | – |
| > 30000 nM | < 10 nM | CCS(=O)(=O)Nc1ccc(-c2n[nH]c(Nc3cnc(C(F)(F)F)cn3)c2C(N)=O)cc1OCc1ccc(F)cc1 [Compound 9, 3-(4-(ethylsulfonamido)-3-((4-fluorobenzyl)oxy)phenyl) 5-((5-(trifluoromethyl)pyrazin-2 yl)amino)-1H-pyrazole-4 carboxamide] | > 30000 nM | 10 to 1000 nM | – | – |
| > 30000 nM | < 10 nM | NC(=O)c1c(-c2ccc(NS(=O)(=O)CC(F)(F)F)c(OCc3ccc(Cl)cc3)c2)n[nH]c1Nc1cnc(C(F)(F)F)cn1 [Compound 234, 3-{3-[(4-chlorophenyl)methoxy]-4-(2,2,2-trifluoroethanesulfonamido)phenyl}-5-{[5-(trifluoromethyl)pyrazin-2-yl]amino}-1H-pyrazole-4-carboxamide] | 1000 to 30000 nM | 10 to 1000 nM | – | – |
| > 30000 nM | < 10 nM | Cc1nccc(Nc2[nH]nc(-c3ccc(NS(=O)(=O)C(F)F)c(O[C@@H](C)c4ccc(F)cc4)c3)c2C(N)=O)n1 [Compound 309, (S)-3-(4-((difluoromethyl)sulfonamido)-3-(1-(4-fluorophenyl)ethoxy)phenyl)-5-((2-methylpyrimidin-4-yl)amino)-1H-pyrazole-4-carboxamide] | > 30000 nM | 10 to 1000 nM | – | – |
| > 30000 nM | < 10 nM | CCS(=O)(=O)Nc1ccc(-c2n[nH]c(Nc3cnc(C)cn3)c2C(N)=O)cc1 [Compound 101, 3-(4-(ethylsulfonamido)phenyl)-5-((5-methylpyrazin-2-yl)amino)-1H-pyrazole-4-carboxamide] | > 30000 nM | 1000 to 30000 nM | – | – |
| > 30000 nM | < 10 nM | CCS(=O)(=O)Nc1ccc(-c2[nH]nc(Nc3ccnc(OCCOC)c3)c2C(N)=O)cc1 [Compound 127, 5-(4-(ethylsulfonamido)phenyl)-3-((2-(2-methoxyethoxy)pyridin-4-yl)amino)-1H-pyrazole-4-carboxamide] | > 30000 nM | 1000 to 30000 nM | – | – |
| > 30000 nM | < 10 nM | CCS(=O)(=O)Nc1ccc(-c2n[nH]c(Nc3cnccn3)c2C(N)=O)c(OCc2ccc(Cl)cc2)c1 [Compound 198, 3-(2-((4-chlorobenzyl)oxy)-4-(ethylsulfonamido)phenyl)-5-(pyrazin-2-ylamino)-1H-pyrazole-4-carboxamide] | > 30000 nM | 1000 to 30000 nM | – | – |
| > 30000 nM | < 10 nM | CCS(=O)(=O)Nc1ccc(-c2n[nH]c(Nc3cnc(C)cn3)c2C(N)=O)cc1OCc1ccc(F)c(Cl)c1 [Compound 150, 3-(3-((3-chloro-4-fluorobenzyl)oxy)-4-(ethylsulfonamido)phenyl)-5-((5-methylpyrazin-2-yl)amino)-1H-pyrazole-4-carboxamide] | > 30000 nM | 10 to 1000 nM | – | – |
| > 30000 nM | < 10 nM | Cc1cnc(Nc2[nH]nc(-c3ccc(NS(=O)(=O)CC(F)(F)F)c(O[C@@H](C)c4ccc(F)cc4)c3)c2C(N)=O)cn1 [Compound 264, 3-{3-[(1S)-1-(4-fluorophenyl)ethoxy]-4-(2,2,2-trifluoroethanesulfonamido)phenyl}-5-[(5-methylpyrazin-2-yl)amino]-1H-pyrazole-4-carboxamide] | > 30000 nM | < 10 nM | – | – |
| > 30000 nM | < 10 nM | Cc1cnc(Nc2[nH]nc(-c3ccc(NS(=O)(=O)CC(F)(F)F)c(OCc4ccc(F)cc4)c3)c2C(N)=O)cn1 [Compound 163, 3-(3-((4-fluorobenzyl)oxy)-4-((2,2,2-trifluoroethyl)sulfonamido)phenyl)-5-((5-methylpyrazin-2-yl)amino)-1H-pyrazole-4-carboxamide] | > 30000 nM | 10 to 1000 nM | – | – |
| > 30000 nM | < 10 nM | Cc1cnc(Nc2[nH]nc(-c3ccc(NS(=O)(=O)C(F)F)c(O[C@@H](C)c4ccc(F)cc4)c3)c2C(N)=O)cn1 [Compound 245, 3-[4-(difluoromethanesulfonamido)-3-[(1S)-1-(4-fluorophenyl)ethoxy]phenyl]-5-[(5-methylpyrazin-2-yl)amino]-1H-pyrazole-4-carboxamide] | > 30000 nM | < 10 nM | – | – |
| > 30000 nM | < 10 nM | C[C@H](Oc1cc(-c2n[nH]c(Nc3cc(C(C)(C)F)on3)c2C(N)=O)ccc1NS(=O)(=O)C(F)F)c1ccc(F)cc1 [Compound 297] | > 30000 nM | 10 to 1000 nM | – | – |
| > 30000 nM | < 10 nM | CCS(=O)(=O)Nc1ccc(-c2n[nH]c(Nc3ccnc(C)c3)c2C(N)=O)cc1 [Compound 113, 3-(4-(ethylsulfonamido)phenyl)-5-((2-methylpyridin-4-yl)amino)-1H-pyrazole-4-carboxamide] | > 30000 nM | 1000 to 30000 nM | – | – |
| > 30000 nM | < 10 nM | CCS(=O)(=O)Nc1ccc(-c2n[nH]c(Nc3cnccn3)c2C(N)=O)cc1OCc1ccc(Cl)c(F)c1 [Compound 166, 3-(3-((4-chloro-3-fluorobenzyl)oxy)-4-(ethylsulfonamido)phenyl)-5-(pyrazin-2-ylamino)-1H-pyrazole-4-carboxamide] | > 30000 nM | 10 to 1000 nM | – | – |
| > 30000 nM | < 10 nM | NC(=O)c1c(-c2ccc(NS(=O)(=O)CC(F)(F)F)c(OC3(c4ccccc4)CC3)c2)n[nH]c1Nc1cnccn1 [Compound 161, 3-(3-(1-phenylcyclopropoxy)-4-((2,2,2-trifluoroethyl)sulfonamido)phenyl)-5-(pyrazin-2-ylamino)-1H-pyrazole-4-carboxamide] | 1000 to 30000 nM | 10 to 1000 nM | – | – |

Like-named read-outs stand apart in the source and are kept apart here.
